# Over roughly 33,000 sequences, “E-score (-0.5 to 0.5)” has its median near -0.054; the highest 2% begin near 0.39. The list shows a part of the results.
# Biological target: Ylr278c (UniProt Q05854)
# Assay: PBM E-score (8-mer binding enrichment) (E-score (-0.5 to 0.5)); higher = stronger / more preferred TF binding; most listed sequences are background and not binding sites
# Settings: protein concentration: 200 nM; construct: GST-DNA-binding domain
# Summary of the method: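 Detection of bound protein used fluorescent anti-GST, with scans normalised by masliner. The proteins were GST-tagged yeast transcription factors applied at about 100-200 nM to universal all-10-mer Agilent arrays made double-stranded by primer extension. Each ungapped eight-base word, pooled with its reverse complement, was scored with an E-score from the Universal PBM Analysis Suite.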
row,Sequence,PBM E-score
1,AGAGGAAT,-0.2
2,CAGTTCTC,0.123
3,GATGCGTA,-0.0332
4,CAAGCTTG,-0.0834
5,ATGCCCTG,-0.196
6,CTATCTCA,-0.0411
7,AGACTTTC,-0.0647
8,AAACCCCC,-0.0651
9,ACATAATC,0.0327
10,GAGTTCCC,0.0904
11,AGAGTATA,-0.163
12,ATGAGCCG,-0.00632
13,ACCTTCTG,-0.0277
14,ACAGCGCC,0.215
15,AAGACCTA,-0.0495
16,CTCGGGTA,-0.0227
17,ACAGGTCA,-0.109
18,CGCCCGTC,0.264
19,AATACGGG,0.116
20,GTGTACTA,-0.171
21,GTCGGAAA,0.424
22,ATTCTACG,0.0201
23,GCGCCGCC,0.247
24,GTAAGGTA,0.0123
25,AAAAAGCG,0.172

row,Sequence,PBM E-score
1,ACCGACAA,0.199
2,GGGGCTCA,-0.0512
3,CACTTACA,-0.188
4,CCCTATCC,-0.0154
5,AAAGAAAT,-0.1
6,GCTGTCGA,0.0714
7,ATTCCCCG,0.375
8,CACTGCTG,-0.189
9,CATTTGAG,-0.0532
10,AATTTCAT,-0.128
11,CGGGACCA,0.0437
12,CAACAGTA,-0.07
13,AATATTCA,-0.0797
14,AAGTCCCA,-0.102
15,CTGAGTGA,0.187
16,AGTAGATC,0.0105
17,GTTTTCGA,-0.128
18,CATTGGTC,-0.0858
19,CACAAATC,-0.0387
20,AACGAAAG,-0.107
21,GGGGTGGA,0.0686
22,AAAGTTCC,0.173
23,GAGCCGGC,0.325
24,TCATGAAA,-0.0379
25,AGTTTATG,-0.128

row,Sequence,PBM E-score
1,CACCTCTC,-0.0621
2,CTAAGATA,-0.0917
3,CAGTTCGG,0.269
4,ATGTGTCG,-0.0696
5,CGTGAGCC,-0.0777
6,AGCAATAC,-0.0703
7,ACTTTCCG,0.321
8,ATCAATTA,0.0539
9,ACCTTGGG,-0.056
10,AGGTGGCG,-0.114
11,TGTGTGAA,-0.121
12,TCTACAAA,-0.217
13,AATGTAGT,-0.0362
14,ACTTGAGA,-0.232
15,AATCTTAT,0.0117
16,AACATGTA,-0.00363
17,CAGGAATC,-0.035
18,TATAATGA,-0.0749
19,AGAACCAG,-0.0294
20,ATTAAGTG,-0.106
21,GGTTCAAA,0.0582
22,CGCACCAG,0.0559
23,CGTATCCC,0.048
24,GCGCGGGA,0.248
25,GCGCCACC,-0.163

row,Sequence,PBM E-score
1,ATTTCATC,0.166
2,GCGTTACA,0.00694
3,ATCTGTGG,-0.141
4,GCAGCAGA,-0.169
5,GTTTTCTA,-0.0305
6,ATAATCCG,0.376
7,AGTACTTC,0.134
8,GCCCTGTA,-0.071
9,GAAAAAGA,0.0891
10,GCAAAAAA,0.0913
11,ATTCCGGA,0.46
12,CAACGCTC,-0.195
13,CAGAGGAG,-0.243
14,CCTTGGCC,-0.306
15,GCATATTA,-0.0157
16,GCGTTTCC,0.201
17,AGTCGTAG,-0.174
18,CTACCTTA,0.00722
19,TACAGGAA,0.0451
20,GAGTTCTA,-0.0512
21,ATGATTCG,0.0401
22,AGCGTGAT,-0.116
23,GTACGTCA,-0.24
24,CCTTTCAC,-0.133
25,ATTGGCCG,0.208

row,Sequence,PBM E-score
1,CAGACGCC,-0.0403
2,AGGCGAAG,-0.195
3,CCGCCCAA,0.113
4,ATTTGCAG,0.0717
5,GCGTTCCA,-0.1
6,ACATTGCT,-0.203
7,CGGTCCTA,0.155
8,TGGGGAAA,0.0549
9,AATTCTAA,-0.0445
10,CTTGTTGA,-0.0886
11,AAACATCG,-0.126
12,CATAAAAA,-0.0962
13,CCTAAATC,0.0832
14,GGATTCAA,-0.137
15,CAGCATAA,0.0515
16,TAGCCACA,-0.289
17,TCTTCCAA,-0.0225
18,GACGAGGC,0.0299
19,AACACCTT,-0.117
20,AGTAGACT,-0.0796
21,GAATACTA,0.0108
22,ATAGGTTA,-0.0689
23,GACGTTCC,0.218
24,CGTGCGGA,0.279
25,AATCCGTG,0.26

row,Sequence,PBM E-score
1,CAGGAGAA,0.0274
2,GGTACACA,-0.0855
3,CACAGATG,-0.139
4,CTAGGTTC,0.0862
5,ACACCGCG,0.216
6,CCTGTGAG,-0.271
7,CCTTATCA,-0.188
8,GAACCGGC,0.283
9,ACATTCTC,-0.0548
10,ACCCAGAC,-0.0988
11,GCCCATCC,-0.108
12,AATCGGCT,0.286
13,CAGGGCAG,-0.225
14,AGTATTCG,-0.0379
15,CAAAGTTC,0.0218
16,CTTATTAA,0.0334
17,CGGCGGCC,0.322
18,TACTAACA,-0.187
19,CATTGTGC,-0.0596
20,CAGGTGCG,0.155
21,AGTCGTGC,-0.245
22,AGGTCCCC,0.019
23,AGTTGCAC,-0.113
24,ATGTTAGC,-0.0158
25,ACTCAATC,-0.0725

row,Sequence,PBM E-score
1,TAGTTAGA,-0.0721
2,ACGTTCGC,-0.0937
3,AGAACGGC,0.0608
4,CCATGAAC,-0.0376
5,TATGGACA,0.0133
6,ACTGGCTC,-0.0994
7,AATCAACG,-0.105
8,GGTTGTAC,0.103
9,CAAAAATA,0.122
10,ATGAACGC,0.00098
11,GTCGAAAC,-0.0444
12,ATAGCGTC,-0.075
13,GCCACGCC,-0.0772
14,CACTTCGA,-0.174
15,CTACAGGC,-0.0765
16,CCAAATCC,0.148
17,GCGAGGGA,-0.056
18,ACATTTCC,0.261
19,ACATGTTG,-0.0903
20,GATTCAGC,0.0113
21,TCCTATAA,-0.0721
22,CAATAATG,-0.111
23,GAAGACAA,-0.0383
24,TGAAGAAA,-0.0302
25,GCCTAGAA,-0.217

row,Sequence,PBM E-score
1,CTATCCGA,0.0513
2,CCACATCC,0.0271
3,CAGACTGG,-0.271
4,GGCACAAC,-0.0546
5,CAAAGGTA,-0.144
6,TGTTCCAA,-0.31
7,CCTCACAC,-0.296
8,ACTACTGC,-0.0745
9,CGAGCTCC,0.256
10,GTTCCTAA,-0.0001
11,GCATGAGA,-0.151
12,CCAACTCA,-0.093
13,ACATTGAC,-0.179
14,AGGGGTGA,-0.235
15,CAAACGGG,0.14
16,GAACCGTA,-0.0428
17,CCGCAGCG,0.299
18,GCGTAAAC,0.11
19,CTCGCTGA,-0.0594
20,ACTTTGGC,0.0656
21,ACTATCGA,-0.169
22,ATAAAACG,0.155
23,AATCCGAA,0.39
24,GCATTTCA,0.0527
25,GATATGGA,0.181

row,Sequence,PBM E-score
1,AGGTTCGG,0.3
2,ATACATTA,-0.128
3,AGGCGACA,-0.185
4,ATCCGTGG,0.299
5,AAGCTGGC,-0.118
6,CAGGGAAA,-0.0532
7,AATGTCCC,0.0132
8,AGACCGGC,0.254
9,GTACCCAA,-0.151
10,CACATCTA,0.0303
11,GACTAGTC,-0.193
12,AGTATACC,0.0108
13,CAGAACCC,0.0591
14,CTGCCCTC,-0.303
15,GCGACCAC,0.119
16,AGAACCGA,0.0209
17,GATCGAAC,-0.128
18,CAAGTTTA,-0.0938
19,GCGGTTAC,0.0892

# — the supplement of paper PMC3334620
